Data taken from ChEMBL document CHEMBL4888484, “Replenishing the malaria drug discovery pipeline: Screening and hit evaluation of the MMV Hit Generation Library 1 (HGL1) against asexual blood stage Plasmodium falciparum ,using a nano luciferase reporter read-out” (2022).
The campaign covered roughly 150,000 compounds. About 540 (0.36%) showed an effect of 50% or more. Some of the results follow.

Test system: Plasmodium falciparum
Assay: Primary screen in NF54 nanoGlo assay, in single point, at 2uM, 72h; a lower Z score goes with more inhibition
Type: functional, Erythrocyte
Details: timepoint 72 hour

| Structure (SMILES) | % Inhibition [%] | Z score |
| --- | --- | --- |
| CC1(C)C[C@@H]1C(=O)NCCCn1ccnn1 | -4 | 0.85 |
| CC[C@H](C)N(Cc1ccc(OS(=O)(=O)C(C)C)cc1)C(=O)CC(C)(C)C | -4 | 0.58 |
| O=C(NCCC1=CCCCC1)c1ccc([C@H]2Nc3cc(C(F)(F)F)ccc3S(=O)(=O)N2)cc1 | -11 | 1.34 |
| C#CCNC(=O)C12CC(CN1Cc1ccccc1)C2 | -14 | 1.88 |
| Cc1ccc(S(=O)(=O)N2CCN(S(=O)(=O)c3ccc(C)cc3)C2c2ccc(N(C)C)cc2)cc1 | -12 | 2.24 |
| O=C(C1CCCC1)N1CC2CC=CCC2C1 (stereo not drawn) | -7 | 0.77 |
| CC(C)Cc1nc(C(=O)N2CC(O)CC2c2ccccc2)cs1 (stereo not drawn) | -18 | 2.87 |
| Cc1nc(N2CCCC2)nc(NCCN2CCC[C@H](CO)C2)c1C | 2 | -0.36 |
| CC[C@@H](C(=O)Nc1cccc(Cl)c1)N(C)C | -13 | 1.75 |
| Cc1n[nH]c(C(=O)NC[C@@H](CO)Cc2ccco2)c1Cl | -14 | 1.34 |
| CN(C)c1nc(N)nc(CNC(=O)CC[C@@H]2CCCN3CCCC[C@H]23)n1 | -8 | 1.04 |
| CCO[C@H]1C[C@H](Nc2ncnc3ccc(F)cc23)C1 | -14 | 2.66 |
| COc1ccc(-c2cc(C(F)(F)F)nc(N3CCC(C)CC3)n2)cc1OC | -17 | 1.62 |
| COCC(C)(C)CNc1nc(N)nc(C)c1Cl | -10 | 1.69 |
| CCn1nccc1-c1cccc(-c2noc(-c3ccc(C)c(C)c3)n2)c1 | -3 | 0.33 |
| O=C(c1cc2n(n1)CCC2)N1CCC(c2nc3ccccc3s2)CC1 | -15 | 1.57 |
| COCCc1nc2c(c(N3CCN(c4cc(C)ccc4C)CC3)n1)CCOCC2 | -9 | 0.84 |
| Cc1ccc(CNC(=O)c2nc(N3CCCCC3)c3c(C)c(C)n(-c4ccccc4)c3n2)o1 | -13 | 2.01 |
| C[C@@H](C(=O)NC1CCCC1)S(=O)(=O)Cc1ccc(Cl)s1 | -4 | 0.79 |
| Cc1cncc(C(=O)N(Cc2noc(C)n2)C(C)C)c1 | 2 | -0.22 |
| CN(c1ccccc1)c1ncc(C(=O)O)s1 | -8 | 1.06 |

| Structure (SMILES) | % Inhibition [%] | Z score |
| --- | --- | --- |
| COc1ccc(Cl)c2c(O)c(CN(C)C3CCCCC3)c(C)nc12 | -8 | 1.1 |
| COCc1nc(CNC(=O)N2CCC[C@H](C3CCCC3)C2)cs1 | -3 | 0.31 |
| Cc1nc(-c2cccc(CO)c2)c2cnn(C)c2n1 | -13 | 2.21 |
| Cc1cccc(-c2cn([C@@H](Cn3ccnc3)C(C)(C)C)nn2)n1 | -13 | 2.23 |
| O=C(Nc1ccccc1)C1C(=O)NC2(c3ccccc3)CC1c1ccccc1O2 (stereo not drawn) | 2 | -0.2 |
| Cc1ccc(F)cc1-c1nnc(NS(=O)(=O)c2ccccc2)o1 | 0 | 0.05 |
| NC(=O)c1ncn([C@H]2CCCN(Cc3ncccc3Cl)C2)n1 | 7 | -1.15 |
| CCCNC(=O)c1nc(N2CCCC2)c2ccccc2n1 | -8 | 1.24 |
| Cc1cccnc1-n1nc(C(C)C)nc1[C@H]1CC(=O)N(c2cccc(O)c2)C1 | -6 | 1.12 |
| CC(=O)NCc1ccc(-c2cc(NC3CCCC3)nc3[nH]ccc23)nc1 | -10 | 1.14 |
| Cc1c([C@H](C)NCc2ccc(NC(=O)c3ccc(F)cc3)cc2)cnn1C(C)C | 1 | -0.09 |
| O=C(c1cccc(F)c1)N1CCOc2ccc(CN3CCCC3)cc2C1 | -10 | 1.09 |
| CNc1cc(C)nc(/C=C/C2CCCCC2)n1 | 1 | -0.14 |
| O=C(OC1CCCCC1)C1CCN(S(=O)(=O)c2ccc(Cl)cc2)CC1 | -9 | 1.29 |
| CCS(=O)(=O)N1CC[C@H](c2ncc(C)n2CCCOC)C1 | 1 | -0.1 |
| CC(=O)N1CCC(NC(=O)c2ccc(Cl)o2)CC1 | -2 | 0.35 |
| O=C(OCc1nc(-c2ccncc2)no1)c1ccc(F)cn1 | -5 | 0.51 |
| O=C(Cc1cccs1)Nc1nnc(C2CCCCC2)o1 | -17 | 1.97 |
| CCc1cnc(NC(=O)c2c[nH]c(C)n2)o1 | -11 | 1.71 |
| Cc1ccc(C(=O)NC2CCCCCC2)c(=O)[nH]1 | -8 | 0.99 |
| O=C1CNC(=O)N1c1cccc(NS(=O)(=O)c2ccccc2)c1 | -3 | 0.56 |

| Structure (SMILES) | % Inhibition [%] | Z score |
| --- | --- | --- |
| Cc1ccc(Br)c(NC(=O)N(C)CC(C)(CO)CO)c1 | -11 | 1.77 |
| O=S(=O)(CC1CCCC1)NCCc1nccs1 | -2 | 0.19 |
| Nc1cc(-c2ncnn2C2Cc3ccccc3C2)ccn1 | -11 | 2.08 |
| CCCNC(=O)[C@@H]1CCCC[C@@H]1C(=O)Nc1ccc(NC(=O)C(C)(C)C)c(C)c1 | 1 | -0.21 |
| Cn1cccc1C(=O)Nc1cccc(-n2ncc(C(=O)O)c2C(F)(F)F)c1 | -10 | 1.11 |
| Cc1cc(F)ccc1N1C[C@]23C=C[C@H](O2)C(C(=O)N2CCN(C(C)C)CC2)C3C1=O (stereo partly drawn) | -1 | 0.14 |
| CCCn1ncc(C(=O)N[C@H]2CCS(=O)(=O)C2)c1C1CC1 | -1 | 0.22 |
| CC1(C)CCc2nc(NC(=O)[C@@H]3CCC(=O)N3)sc2C1 | -3 | 0.44 |
| O=C(CN1CCC2(CC1)NC(c1ccc(OC(F)(F)F)cc1)=NO2)NCc1ccc(F)cc1 | 31 | -4.22 |
| COc1ccc(-c2cc(N(C)C(=O)C(C)C)n[nH]2)cc1 | -8 | 1.22 |
| Cc1nccn1-c1cc(CNC(=O)C2CCCCC2)ccn1 | -10 | 2.03 |
| CN(C)C(=O)CN1CCN(Cc2c[nH]nc2-c2cccc3ccccc23)CC1 | -16 | 1.71 |
| O=C(NCC1(N2CCCC2)CCOCC1)c1ccc2nc(C(F)(F)F)cn2c1 | -1 | 0.16 |
| CC(C)N1C[C@@H]2OCC(=O)N(CC3CCCCC3)[C@@H]2C1 | -13 | 1.69 |
| CCN(CC)S(=O)(=O)c1ccc2c(c1)N(CC(=O)N1CCCCCC1)C(=O)CO2 | -15 | 1.91 |
| O=C(NCCc1nnc2ccccn12)c1cc(-c2cccnc2)n[nH]1 | -12 | 1.57 |
| COc1ccc(C)cc1NC(=O)CCc1c(C)nn(-c2ccc3nncn3n2)c1C | -8 | 0.97 |
| O=C(Nn1cc(C(=O)Nc2ccc(F)cc2Cl)c2ccccc2c1=O)c1cnccn1 | 13 | -1.89 |
| Cn1nc(C(=O)Nc2ccc3c(c2)CCC3)ccc1=O | -15 | 2.37 |
| Cc1noc(CNC(=O)Cc2cccc(Br)c2)n1 | 5 | -0.98 |
| CCC(=O)Nc1c(C)noc1/C=C\c1ccc(S(=O)(=O)Nc2ccc(F)c(F)c2)cc1 | -20 | 2.76 |

| Structure (SMILES) | % Inhibition [%] | Z score |
| --- | --- | --- |
| COc1cc(Cl)cc2cc(C(=O)N(C)CCC[C@H]3CCCO3)oc12 | -3 | 0.62 |
| Cc1cc(=O)n(CC(=O)NCc2ccc(F)cc2)c(N2CCCCC2)n1 | -21 | 2.21 |
| O=C(c1nccnc1C(=O)N1CCc2ccccc2C1)N1CCCCC1 | -8 | 1.6 |
| CCn1c(C)ccc(C(=O)NC2(Cc3ccccc3C)CC2)c1=O | 2 | -0.25 |
| Cc1cccc(NC(=O)[C@@H]2CCCN2C(=O)OC(C)(C)C)c1C | -2 | 0.35 |
| CN(C(=O)[C@H]1CC12CCCCC2)c1nncs1 | -12 | 1.93 |
| CCc1n[nH]c(=O)c2cc(S(=O)(=O)N3CCN(c4cccc(C)c4)CC3)cn12 | 2 | -0.39 |
| O=C(CN1CCCCC1=O)Nc1ccccc1CN1CCCCC1 | -4 | 0.6 |
| O=C(CN1CCS(=O)(=O)CC1)N1CCc2ccccc2C1 | -11 | 1.53 |
| CCN(CC(=O)N1CCCNC(=O)[C@@H]1C)c1ccccc1 | -10 | 1.27 |
| CCn1cc(C)c(C(=O)O)c1CC(=O)NCCc1ccc(Cl)cc1 | -13 | 1.77 |
| CCOC(=O)[C@H]1CCCN(C(=O)c2cc3n(n2)CCN(Cc2ccc(Cl)c(Cl)c2)C3=O)C1 | -1 | 0.08 |
| CC(C)c1nccn1Cc1nc2cc(F)ccc2o1 | -10 | 1.32 |
| CC(C)(C)OC(=O)N1CC(C)(C)C(C(=O)O)C(C)(C)C1 | -2 | 0.28 |
| c1ccc(CC2(c3nc(-c4cnccn4)no3)CCC2)cc1 | 13 | -2.33 |
| Cc1ccccc1[C@H]1CCCN(C(=O)c2n[nH]c(N)c2Cl)C1 | 13 | -2.49 |
| CCOC(=O)c1cnc2ccc(OC)cc2c1NCCc1nc2ccccc2n1-c1c(C(=O)OCC)cnc2ccc(OC)cc12 | -6 | 1.12 |
| COc1ccc(-c2cc(C(=O)NCc3cccs3)sn2)cc1 | -11 | 1.4 |
| CCC(=O)N1CCc2cc(Br)c(S(=O)(=O)CCC(=O)Nc3cccc(C(C)=O)c3)cc21 | -2 | 0.21 |
| CCn1cc(CN(C)C(=O)[C@@H]2CC(F)(F)CN2C2CN(S(C)(=O)=O)C2)c(C)n1 | -7 | 0.78 |
| COC1CCN(C(=O)Cc2ccc(-c3ccccc3)cc2)CC1 | 8 | -1.38 |
